# Measurements as given in article PMC4336329 (PLoS ONE, 2015).
# Among all 310,000 compounds or so, about 14,000 (4.5%) showed an effect of 50% or more. The effect is printed as a negative number. The list shows a part of the results.
# Molecular target: human ether-à-go-go-related gene (hERG) potassium channel (human, UniProt Q12809)
# Assay: primary screen, population patch clamp on CHO cells stably expressing hERG
# 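Note: peak tail current of the secondary pulse compared with the same well before compound.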
# Sequence of human ether-à-go-go-related gene (hERG) potassium channel (Q12809 whole entry, looked up): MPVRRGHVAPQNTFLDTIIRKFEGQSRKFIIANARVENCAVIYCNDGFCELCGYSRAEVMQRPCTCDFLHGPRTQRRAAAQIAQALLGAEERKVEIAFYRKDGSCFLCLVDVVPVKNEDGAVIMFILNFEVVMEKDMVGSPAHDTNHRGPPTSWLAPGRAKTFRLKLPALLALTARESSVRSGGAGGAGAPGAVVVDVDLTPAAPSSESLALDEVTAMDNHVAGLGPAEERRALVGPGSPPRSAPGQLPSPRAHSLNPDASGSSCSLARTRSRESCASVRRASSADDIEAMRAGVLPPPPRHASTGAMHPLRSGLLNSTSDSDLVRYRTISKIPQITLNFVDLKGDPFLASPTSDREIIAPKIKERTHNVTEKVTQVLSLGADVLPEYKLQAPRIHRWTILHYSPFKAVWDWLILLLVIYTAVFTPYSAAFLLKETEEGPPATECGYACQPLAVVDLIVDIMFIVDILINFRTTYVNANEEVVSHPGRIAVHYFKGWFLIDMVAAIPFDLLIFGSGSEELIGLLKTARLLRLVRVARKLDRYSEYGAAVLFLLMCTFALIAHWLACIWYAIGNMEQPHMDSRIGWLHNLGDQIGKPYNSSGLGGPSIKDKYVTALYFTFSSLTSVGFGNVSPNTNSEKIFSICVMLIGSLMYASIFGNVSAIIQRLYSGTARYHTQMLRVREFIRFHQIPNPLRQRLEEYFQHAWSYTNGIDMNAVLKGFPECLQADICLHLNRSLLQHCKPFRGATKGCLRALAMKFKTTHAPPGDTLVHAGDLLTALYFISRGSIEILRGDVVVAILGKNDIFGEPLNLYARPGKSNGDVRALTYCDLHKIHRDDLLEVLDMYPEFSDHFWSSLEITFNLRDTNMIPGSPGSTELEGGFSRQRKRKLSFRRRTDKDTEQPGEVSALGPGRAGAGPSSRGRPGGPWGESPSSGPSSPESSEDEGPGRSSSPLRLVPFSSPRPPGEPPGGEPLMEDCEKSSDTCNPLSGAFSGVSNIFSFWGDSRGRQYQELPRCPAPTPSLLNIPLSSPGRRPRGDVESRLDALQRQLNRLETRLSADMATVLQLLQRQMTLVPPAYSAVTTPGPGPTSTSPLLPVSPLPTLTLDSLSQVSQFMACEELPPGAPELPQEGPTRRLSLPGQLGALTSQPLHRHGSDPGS
row,Structure (SMILES),"hERG current change (%, negative = inhibition) at 10uM [%]"
1,COc1ccc(C(=O)NC(=S)Nc2ccc(S(=O)(=O)Nc3cc(OC)ncn3)cc2)cc1,15.4
2,CC(C)N1CCc2c(sc(NC(=O)c3ccc(S(=O)(=O)N4CCCCC4C)cc3)c2C(N)=O)C1 (centres unmarked),-43.6
3,CCOC(=O)c1cnc(SCC(=O)OC)nc1N,52.5
4,CN(C)c1ccc(/C=C(/NC(=O)c2ccccc2)C(=O)N2CCCC2)cc1,11.4
5,CN1CCN(CCC(=O)Nc2ccc(Br)cc2)CC1,12.5
6,CC1C[N+](=C2C=C(N3CCOCC3)CC(C)(C)C2)CC(C)O1.[I-] (centres unmarked),12.4
7,CCC1CCC(C(=O)NC(CCSC)C(=O)NCCc2ccc(S(N)(=O)=O)cc2)CC1 (centres unmarked),7.77
8,CCCc1[nH]nc2c1C(c1ccccc1OC)C(C#N)=C(N)O2 (centres unmarked),3.53
9,Cc1ccc(NC(=O)c2c([N+](=O)[O-])cnn2C)cc1C,10.5
10,N#Cc1cccc(N=Cc2c(O)ccc3ccccc23)c1,9.48
11,Cc1cccc(NC(=O)CN2CCc3cc4c(cc3C2)OCCCO4)c1,20.1
12,O=C(N/C=C\n1cnc2cc(C(F)(F)F)ccc21)c1ccc([N+](=O)[O-])cc1,-7.31
13,CCN(CC)CCN(C(=O)CN1C(=O)c2ccccc2C1=O)c1nc2cc3c(cc2s1)OCO3.Cl,-17.8
14,Cc1ccc2c(c1)C(=O)CCN2,-13.5
15,COc1ccc(CNC(=O)COC(=O)/C=C/c2ccc(S(=O)(=O)N3CCOCC3)cc2)cc1,16.2
16,O=C(c1ccco1)N1CCN(S(=O)(=O)c2ccc(S(=O)(=O)NC3CC3)cc2)CC1,-32
17,CCOC(=O)Oc1ccc2c(=O)c(Oc3cccc(C)c3)coc2c1,-23.1
18,CCOC(=O)N1CCN(C(=O)CSc2ccc3nnc(-c4cccnc4)n3n2)CC1,-23
19,Cc1ccc(S(=O)(=O)N2CCCC2CNC(=O)c2ccc3c(c2)OCO3)cc1 (centres unmarked),-17.5
20,C/C(CC(C)C)=N\Oc1nc(C)cc(C)n1,26.2
21,COc1ccc(CC2(CO)CCN(C(C)COc3ccccc3)CC2)cc1 (centres unmarked),-82
22,CC1Cc2ccccc2N1CC(=O)NCc1ccccc1Cl (centres unmarked),-14.8

row,Structure (SMILES),"hERG current change (%, negative = inhibition) at 10uM [%]"
1,O=C(CCNC(=O)c1ccc([N+](=O)[O-])cc1)NCCCN1CCCC1=O,6.84
2,O=C(CN1CCN(c2ccc(F)cc2)CC1)Nc1ccc(-n2cnnn2)cc1,-5.63
3,COc1ccc(S(=O)(=O)N2CCCC2=O)cc1N(C)S(C)(=O)=O,13.8
4,COc1ccc2ccccc2c1/C=N/NC(=S)Nc1cc(S(=O)(=O)N2CCOCC2)ccc1N1CCOCC1,19
5,Cc1oc(-c2ccccc2)nc1C(=O)Nc1nccs1,14.7
6,NC(=O)c1ccc(C23CC4CC(CC(C4)C2)C3)o1,-17
7,CCC(=O)Nc1ccc(N/C(N)=N/c2nc(C)cc(C)n2)cc1,-4.25
8,Cc1csc2nc(COC(=O)c3ccc(Cl)c([N+](=O)[O-])c3)cc(=O)n12,-63.1
9,Cc1cc(C)c2nc(SC(C)C#N)cc(C)c2c1 (centres unmarked),13.5
10,CCOc1ccccc1N1C(=O)CC(N(O)c2ccccc2)C1=O (centres unmarked),7.14
11,CS(=O)(=O)N(CC(=O)NCC1CCCO1)c1cccc([N+](=O)[O-])c1 (centres unmarked),26.6
12,CC(C)c1ccc(C(=O)CC2(O)C(=O)N(CN3CCOCC3)c3ccccc32)cc1 (centres unmarked),10.4
13,O=C1C=C(c2ccccc2)OC2(CCCC2)O1,-24.6
14,Cc1c(Cl)cccc1NC(=O)CCN1CCCCCC1,-3.92
15,NC(=NCCc1ccc(Cl)cc1)NS(=O)(=O)c1ccccc1,4.8
16,O=[N+]([O-])c1cnn(-c2nc(-c3ccco3)cc(C(F)(F)F)n2)c1,-0.0425
17,O=C(O)CC1(CC(=O)Nc2cccc(C(F)(F)F)c2)CCCC1,10.5
18,Cc1ccc(S(=O)(=O)CC(=O)c2ccc3c(c2)OCCO3)cc1,-1.01
19,NC(=O)c1ccc(Sc2nnc(-c3cccs3)n2CC2CCCO2)c([N+](=O)[O-])c1 (centres unmarked),-3.51
20,CN(C)c1ccc(-c2nc3ccccn3c2/N=C/c2ccc(Br)cc2)cc1,6.11
21,O=[N+]([O-])c1ccc(C(=S)N2CCCC2)cc1,0.872
22,Cn1cc(CN2CCC(N3CCNC(=O)CC3)CC2)c(-c2ccccc2F)n1,8.43
